Results: PubChem BioAssay AID624414 (National Center for Advancing Translational Sciences (NCATS), 2012)
The whole screen tested about 410,000 compounds, of which about 480 (0.12%) were called active. The inconclusive results got no clear call from the source; some entries with a clear call stand among them for comparison. No stated cut-off is given here; in the data, active means activation above about 50%; inconclusive means mostly about 30% to 49%; inactive means weaker than that.

target: Mucolipin-1 (Homo sapiens) (UniProt Q9GZU1); experiment: qHTS for Agonists of the Human Mucolipin Transient Receptor Potential 1 (TRPML1); conditions: TRPML1-expressing cells, Ca2+ dye fluorescence, FDSS; hits give high values; further: 0% is about no effect
Excerpt: Mutations of human Mucolipin transient receptor potential 1 (TRPML1) cause type IV mucolipidosis (ML4), a devastating neurodegenerative disease in young children. […] Currently, there is no treatment for ML4. […] Under physiological conditions, TRPMLs regulate membrane trafficking by transducing information about PI(3,5)P2 levels into changes in juxtaorganellar Ca2+, thereby triggering membrane fusion/fission events in the late endocytic pathways (endolysosomal trafficking). In addition, TRPML1 mediates release of Fe2+ from late endosomes and lysosomes, which is essential for cellular iron metabolism. Thus, impaired ion (Ca2+ and Fe2+) homeostasis underlies lysosomal dysfunction and ML4 phenotypes. In ML4 cells, the problem is twofold. First, defective Ca2+-dependent membrane trafficking due to TRPML1-deficiency causes accumulation of lipids and other bio-materials in the lysosome. The second strike comes from the lysosomal iron overload (due to impairment of TRPML1's Fe2+ conductivity), which converts the accumulated materials into the nondegradable (resistant to lysosomal degradation) lipofuscin (also called aging pigment) in the lysosome. Lipofuscin accumulation dramatically compromises the functions of lysosomes.
Niemann-Pick type C (NPC) disease is another lysosome storage disease (LSD) with severe neurodegeneration during the childhood. Currently, there is no cure for NPC. […] Thus, TRPML1 is likely to be an essential regulator of lysosome ion homeostasis. We specifically hypothesize that stimulating TRPML1's Fe2+/Ca2+ channel activity in the lysosome using synthetic agonists can alleviate neurodegeneration associated with ML4 or NPC.
To this end, a high throughput screen was developed in a miniaturized format to screen against the Molecular Libraries Small Molecule Repository (MLSMR) to find small molecules that act either as inhibitors or agonist against the TRPML1 channel.
NIH Chemical Genomics Center [NCGC]
NIH Molecular Libraries Probe Centers Network [MLPCN]
Assay Submitter (PI): Haoxing Xu, University of Michigan Ann Arbor
TRPML1-DL cells are dissociated from flasks, counted and, brought up to a density of 500,000 cells per mL of media containing a 1X Tet inducer. Using a Multidrop Combi, 3uL of this cell solution is dispensed to each well of a 1536 TC treated, black, clear bottom hi base plate for a final cell density of 1,500 cells per well. The assay plates are incubated overnight (approximately 16 hours) at 37 degrees C and 5% CO2. Using a Multidrop Combi, 2uL of ABD Ca8 no wash dye plus quencher is added to each well. The assay plates incubate at room temperature in the dark for 45-90 minutes. The assay plate is read on the FDSS using the following protocol: 10 second baseline read, 23nL of compounds and controls are added using 1536 pintool, agonist read for 110 seconds, 1 uL EC80 addition (4uM final 54-4 diluted in media), antagonist read for 110 seconds.

Chain of UniProt Q9GZU1 (Q9GZU1 whole entry, looked up, the tested form may be a part): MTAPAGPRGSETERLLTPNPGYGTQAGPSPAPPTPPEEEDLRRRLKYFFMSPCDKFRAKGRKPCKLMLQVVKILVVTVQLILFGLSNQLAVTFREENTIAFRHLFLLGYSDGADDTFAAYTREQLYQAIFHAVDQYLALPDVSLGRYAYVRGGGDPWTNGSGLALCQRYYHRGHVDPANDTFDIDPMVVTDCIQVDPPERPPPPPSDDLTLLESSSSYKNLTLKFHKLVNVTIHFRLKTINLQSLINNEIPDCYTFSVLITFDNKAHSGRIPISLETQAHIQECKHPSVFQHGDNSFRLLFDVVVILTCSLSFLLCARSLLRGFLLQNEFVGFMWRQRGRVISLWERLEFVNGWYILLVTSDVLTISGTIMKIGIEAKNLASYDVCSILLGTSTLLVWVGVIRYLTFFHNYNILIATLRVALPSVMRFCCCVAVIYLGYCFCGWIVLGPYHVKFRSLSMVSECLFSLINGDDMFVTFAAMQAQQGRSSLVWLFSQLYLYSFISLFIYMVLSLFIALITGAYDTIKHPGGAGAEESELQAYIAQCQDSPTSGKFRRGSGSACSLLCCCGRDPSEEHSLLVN

| SMILES | activation |
| --- | --- |
| CN(C)c1ccc(/C=C/[N+](=O)[O-])cc1 | inconclusive: 43% |
| O=C(CCCN1CCC2(CC1)C(=O)NCN2c1ccccc1)c1ccc(F)cc1 | active: 75.7% |
| COc1ccc(-n2c(O)c(/C=C/C=Nc3ccccc3)c(=O)[nH]c2=O)cc1 | inconclusive: 42.4% |
| O=C1NC(=O)C2C1C1(Cl)C(Cl)=C(Cl)C2(Cl)C1(Cl)Cl (stereo unspecified) | inactive: 1.52% |
| COc1ccc(N=Cc2c(O)n(Cc3ccccc3)c(=S)[nH]c2=O)c(OC)c1 | inactive: 0.242% |
| O=C(Oc1c(Cl)cc(Cl)c2ccccc12)N1CCCCC1 | active: 68% |
| CCCCCc1nc2c(c(=O)c3ccccc3n2C)c(=O)n1C1CCCCCC1 | inconclusive: 37.4% |
| COC(=O)C1=C(c2cc3ccccc3s2)C[C@@H]2CC[C@H]1N2C(=O)NCc1ccc(F)cc1 | inactive: 3.25% |
| Cc1ccsc1C(=O)C1CCCN(Cc2cccc(-n3cccn3)c2)C1 (stereo unspecified) | inactive: 0.569% |
| CC1(C)CSC(=NCc2ccccc2)N1 | active: 91.4% |
| O=c1[nH]c(O)c(/C=C2/C=CC(c3cc(Cl)ccc3Cl)=N2)c(=O)[nH]1 | inconclusive: 34.8% |
| Cc1cc2c(C(F)(F)F)cc(=O)oc2c2c1NCCC2 | inconclusive: 48.2% |
| CC1CCN(c2cc(Br)c([N+](=O)[O-])cc2F)CC1 | inconclusive: 38.1% |
| Cc1ccccc1-n1c(/C=C/c2ccc(N(C)C)cc2)nc2ccccc2c1=O | inconclusive: 41% |
| O=C(Cc1ccccc1)N1CCN(CC2CC=CCC2)CC1 (stereo unspecified) | inactive: 0.0719% |
| O=C1NC(=O)N(c2ccccc2F)C(=O)/C1=C/c1ccc(Sc2nc3ccccc3[nH]2)o1 | inconclusive: 43.9% |

| SMILES | activation |
| --- | --- |
| CCN(CC)c1ccc(/C=C/[N+](=O)[O-])cc1 | active: 70.9% |
| CCn1c(O)c(C=Nc2ccc(N3CCOCC3)cc2)c(=O)n(CC)c1=S | inconclusive: 30.5% |
| C=Cn1c(P(=S)(N2CCOCC2)N2CCOCC2)cc2c1CCCC2 | active: 68% |
| CN1/C(=C\C=C2C(=O)NC(=S)NC2=O)C(C)(C)c2ccccc21 | active: 117% |
| CC1(C)OC(c2ccccc2)=C/C(=C/C=C2C(=O)NC(=S)NC2=O)O1 | inconclusive: 34.2% |
| COc1ccc(N2C(=O)/C(=C/c3ccc(C)o3)C(=O)NC2=S)cc1 | inactive: 1.27% |
| Cc1ccc(-c2cc(-c3ccc(C)cc3)[n+](-c3ccccc3)c(-c3ccc(C)cc3)c2)cc1 | inconclusive: 46.7% |
| O=[N+]([O-])c1cc(F)c(N2CCCCC2)cc1Br | inconclusive: 43.6% |
| ClCCN(CCCl)c1ccc(/C=C/c2ccnc3ccccc23)cc1 | inconclusive: 30.8% |
| O=c1[nH]c(=O)n(C2CCCCC2)c(O)c1/C=C/C=Nc1ccccc1 | inconclusive: 36.1% |
| CCN(CC)c1ccc(/C=N/c2sc3c(c2C#N)C2CCN3CC2)c(O)c1 | inconclusive: 39.6% |
| CC1=NCCc2c1[nH]c1cc(O)ccc21 | inconclusive: 38% |
| Nc1ccc2nonc2c1[N+](=O)[O-] | inconclusive: 33.2% |
| Cc1cc(N(CCCl)CCCl)ccc1C=Cc1ccncn1 | inconclusive: 35.1% |
| O=C1NC(=S)SC1=Cc1ccc(N(CCCl)CCCl)cc1 | inconclusive: 42.2% |
